Measurements: article PMC12136788
Some of the results follow.

B1: chr6:133987709:133987810:+|3pUTR|ENSG00000028839|unk|FALSE|unique (ssRNA)
RNA: GGGAGUUCUACAGUCCGACGAUCAAUAACAAAUAGGAAUUUUUUUUCUUGCAGAUUAGAAAUAAAAACGUGUAUAUAAACUCUAGGGAACCAGACUAGAAGUUUAUAGAUAAAGGAUAAUGUUUUAUGUUGCUAAUUUAAUAUCAACAGAGGAUUGAGCAUCA
B2: chr17:50110931:50111032:+|3pUTR|ENSG00000005882|unk|FALSE|unique (ssRNA)
RNA: GGGAGUUCUACAGUCCGACGAUCUGUGCCCAGACAUGUGUGCUCAGGGUGGCUUUCUCCCUAGGACCUUCUGUGUAUAUAGUUAGUUUUAUAACCCUGAAUGCCCCCACCCUUCCCCUAAGCACACAGGGGUUAAAGCUGUGUCAACAGAGGAUUGAGCAUCA
B3: chr2:20282997:20283108:-|CDS|ENSG00000055917|unk|total|mutant (ssRNA)
RNA: GGGAGUUCUACAGUCCGACGAUCACUAAUCUGCAAUCUAAUUCAUUUUAUGGAAGCAGUUCUUUGACUAACCGCUCCCAGAGCCGUUCUUUAUUUUCUCAUGGACCUGGUCAACCUGGAAGUACAUCUCUUGGCUUUGGAAGUCAACAGAGGAUUGAGCAUCA
B4: chr9:96818597:96818698:-|CDS|ENSG00000196597|unk|total|mutant (ssRNA)
RNA: GGGAGUUCUACAGUCCGACGAUCGGAGAAACCAUUCGAAUGUCAUGAAUGUGGGAAAUCUUUUAACUAUAAGUCAAUCCUCACCGUGCAUCAGAGAACUCACACAGGGGAGAAACCUUUUGAAUGUAAUGAAUGCGGGAAAUCCAACAGAGGAUUGAGCAUCA
B5: chr22:16590879:16592550:-|CDS|ENSG00000198445|control|control|control (ssRNA)
RNA: GGGAGUUCUACAGUCCGACGAUCCCAAGGAUUUCGAGCAGUGGCUGAGGUGGUGCUACAGCUCGUGACUGUAGAUGAAAUCGUAGUGGCCAAGAAAAGUCCCACACAUCAGGAGAUCUGGAAUCCUGACUCUAAGAAGACAAACAACAGAGGAUUGAGCAUCA
B6: chr12:48653210:48654175:-|three_prime_utr|ENSG00000139620|control|control|control (ssRNA)
RNA: GGGAGUUCUACAGUCCGACGAUCGCACCAUUGUCUCAGAGUGGAUUGGCUACUGCAAAUGGGAAGCCAGAACCCACUUCUAUUAGUUGAUAGUUUGGGGAACCAUUUUACUUUGGUGGAUUUAAAUUUCUCGUUCUUCAAAGACAACAGAGGAUUGAGCAUCA
B7: chr9:77717828:77717929:-|3pUTR|ENSG00000156052|unk|FALSE|unique (ssRNA)
RNA: GGGAGUUCUACAGUCCGACGAUCGUGCCUCAUAUCUGAAACAAAGGGAAAUAACACACCCAUUCAAAAGUAAAUAAAUCUCCUAGAAGUUUUUGUUUUUAACAUUUCCAUAUAAAGAGCUCUGUUGAAUGUCAUGAAUAGACUCAACAGAGGAUUGAGCAUCA
B8: ENSG00000163697:stop:overlap|stop_codon|ENSG00000163697|stop_codon|NA|stop_codon (ssRNA)
RNA: GGGAGUUCUACAGUCCGACGAUCGAGGGGUCUUAUCCCUCAUUGACACUUUGAAACAGAAACGCCCUGUCACCGAAAUGCCAUAGCUGCACAUGCAAAAGGACUCGGCUAUUUACCUGAAGAUUGACUAGCUACACUAAAGAACAACAGAGGAUUGAGCAUCA
B9: ENSG00000136451:be:win_901|CDS|ENSG00000136451|bound_else_gene|NA|bound_elsewhere_windowed (ssRNA)
RNA: GGGAGUUCUACAGUCCGACGAUCAUCACCAGCCACUUAAAGACUCAUGGGCAGAGCCAAAGUAUCAACUGUAAUACAUGUAAACAAGGCAUCAGUAAAACAUGCAUGAGUGAAGAGACCAGUAACCAAAAGCAGCAGCAGCAGCAACAGAGGAUUGAGCAUCA
B10: chr6:52279506:52279615:-|CDS|ENSG00000112118|unk|FALSE|unique (ssRNA)
RNA: GGGAGUUCUACAGUCCGACGAUCUGAGUGUGGCAUUUUUAAGACAGGACGGAGAUCACUCUGUCCCUCUGUGUGCCUUUUUCUAGGAUGAGGAGAACAAUCCCCUUGAGACAGAAUAUGGCCUUUCUGUCUACAAGGAUCACCCAACAGAGGAUUGAGCAUCA
B11: chr17:69546800:69546959:+|3pUTR|ENSG00000108984|unk|total|mutant (ssRNA)
RNA: GGGAGUUCUACAGUCCGACGAUCUCAACUUCACCGGACUUUUUUUUUUUUUAACUUUUCAAAUGGAAGGUGCAGUUUUCAAUCCGGCCUCUGAAAAUUUACACCGUCAGAUGGAAAAAUGCCAGAGUAAAAUCCCGGAAGAAGCAACAGAGGAUUGAGCAUCA
B12: chr11:61403655:61403707:-|3pUTR|ENSG00000149532|msi1_unk|total|mutant (ssRNA)
RNA: GGGAGUUCUACAGUCCGACGAUCUGAAGUAACCAGGAGGAAUGGGGAAAGAAGCAAGUUGGGCAGGAUAUGGCCUACUUCCACCGGCUUUUCUUUUUUCAGGUUUGAUGUAAGCAUGGGCUUACAUCCCCCAGGUACAUACUUCAACAGAGGAUUGAGCAUCA
B13: chr12:24811411:24811512:-|3pUTR|ENSG00000060982|msi1|FALSE|unique (ssRNA)
RNA: GGGAGUUCUACAGUCCGACGAUCGUGAAGAACUCUAUAUUUGUAUGUUGAGAGGGCAUGGAAUAAUUGUAUUUUGCUGGCAAUAGACACAUUCUUUAUUAUUUGCAGAUUCCUCAUCAAAUCUGUAAUUAUGCACAGUUUCUGCAACAGAGGAUUGAGCAUCA
B14: ENSG00000005810:stop:overlap|stop_codon|ENSG00000005810|stop_codon|NA|stop_codon (ssRNA)
RNA: GGGAGUUCUACAGUCCGACGAUCCACCCACUGGGGAAGAGUUUGCUCUGGGAUGUGGAGUGUGCAGAAAUGCCCACACUUUUUAGAACACGCAGAUCCUUUGUCUACAGAGAGAAAAAUUGCCUUCAUCCCCCAAGAGGAUGCCAACAGAGGAUUGAGCAUCA
B15: ENSG00000107863:be:win_5401|CDS|ENSG00000107863|bound_else_gene|NA|bound_elsewhere_windowed (ssRNA)
RNA: GGGAGUUCUACAGUCCGACGAUCAGACAUACACUAGGAGGGCACAGAGAUGCUACCGAAAUCAGCGUUUUGAAUUUUUGGAAAGUGCAUGAGCAGAGCGGGGAGAGAGAAUCUGAACUUUCAGCUGUAAACCGGUUAAAACCACAACAGAGGAUUGAGCAUCA
B16: chr12:110350735:110350839:+|3pUTR|ENSG00000174437|unk|total|mutant (ssRNA)
RNA: GGGAGUUCUACAGUCCGACGAUCUACAGUUUGCUUAUUUAUAAAUUCAUUAAAAACACUACAGGUGUUGAAUGGUUAAAAUGCCGGCCUCCAGUUCAUUUUCAGUUAUUUUCUGAGUGUGCAGACAGCUAUUUCGCACUGUAUCAACAGAGGAUUGAGCAUCA
B17: chr2:189033597:189033698:-|3pUTR|ENSG00000204262|msi1|FALSE|unique (ssRNA)
RNA: GGGAGUUCUACAGUCCGACGAUCAAGAGUGGGGUAUAUAGAGCCACAACACAUGUUUAUUUUGCUUGGCUGCAGUUGAAAAAUAGAAAUUAGUGCCCUUUUGUGACCUCUCAUUCCAAGAUUGUCAAUUAAAAAUGAGUUUAACAACAGAGGAUUGAGCAUCA
B18: ENSG00000127995:stop:overlap|stop_codon|ENSG00000127995|stop_codon|NA|stop_codon (ssRNA)
RNA: GGGAGUUCUACAGUCCGACGAUCUAGCUGCAUUUUUUUGUGGACUCCUCAUCUUAUCAUCCAUUCAAGAUAAAUCAAAACAUUAGGUUCCAAAAAUUCUAAAAAACCUAAACUCUUCAGGCUACCUUUGUGUGUCUCUAGAAGCAACAGAGGAUUGAGCAUCA
B19: chr4:173384700:173388395:-|three_prime_utr|ENSG00000164106|control|control|control (ssRNA)
RNA: GGGAGUUCUACAGUCCGACGAUCCUGGAGAACACCAUUCCUGAUUUCCCACAAACUGCACUACAUCAGUAUAACUGCAUUUCUAGUUUCUAUAUAGUGCAAUAGAGCAUAGAUUCUAUAAAUUCUUACUUGUCUAAGACAAGUCAACAGAGGAUUGAGCAUCA
B20: chr6:139242528:139243314:-|CDS|ENSG00000164440|control|control|control (ssRNA)
RNA: GGGAGUUCUACAGUCCGACGAUCGGUGCCUGCAUGCGAGCCCAGUAGGCAGCCCCCACGAGCAGCAGCAGAGGAGCUGCCAGUAGGGGCCUCAGCUGGGCCCCAGCCGCGCAACGUGGCUGACACCAAUCUGGAAGGCGUCGACAACAGAGGAUUGAGCAUCA
B21: chr1:9850293:9850394:-|3pUTR|ENSG00000178585|unk|FALSE|unique (ssRNA)
RNA: GGGAGUUCUACAGUCCGACGAUCCGGUAUCUGGCUUCCCUGGAAGCUCUCCGAGCUCUGGUGCUUUAGUUAGGUCAUUUUUUUAGAAAUGUGAAGAGGUCUGAUUGGCUGCUUAAACUGGAAAGGAUCUGUGAUUGGCUGGUUCAACAGAGGAUUGAGCAUCA
B22: chr9:133361993:133362109:-|3pUTR|ENSG00000148248|msi1_unk|FALSE|overlapping (ssRNA)
RNA: GGGAGUUCUACAGUCCGACGAUCGGCAGGUUUCUGCUCAUAAGUGCUUUUGGAAGUCACCUACCUUUUUAACACAGCCGAACUAGUCCCAACGCGUUUGCAAAUAUUCCCCUGGUAGCCUACUUCCUUACCCCCGAAUAUUGGCAACAGAGGAUUGAGCAUCA

target: MSI1 full-length (mouse, UniProt Q61474 1-362); test: nsRBNS (natural sequence RNA bind-n-seq); RBNS binding buffer (assumed for nsRBNS): 25 mM Tris pH 7.5, 150 mM KCl, 3 mM MgCl2, 0.01% Triton X-100, 500 ug/ml BSA, 20 U/ml SUPERase-In, 4 C; UNK is unkempt and MSI1 is Musashi-1; names of the RNAs are library labels; protein concentration not given here; high values mean tight binding
UniProt Q61474, sequence (Q61474 whole entry): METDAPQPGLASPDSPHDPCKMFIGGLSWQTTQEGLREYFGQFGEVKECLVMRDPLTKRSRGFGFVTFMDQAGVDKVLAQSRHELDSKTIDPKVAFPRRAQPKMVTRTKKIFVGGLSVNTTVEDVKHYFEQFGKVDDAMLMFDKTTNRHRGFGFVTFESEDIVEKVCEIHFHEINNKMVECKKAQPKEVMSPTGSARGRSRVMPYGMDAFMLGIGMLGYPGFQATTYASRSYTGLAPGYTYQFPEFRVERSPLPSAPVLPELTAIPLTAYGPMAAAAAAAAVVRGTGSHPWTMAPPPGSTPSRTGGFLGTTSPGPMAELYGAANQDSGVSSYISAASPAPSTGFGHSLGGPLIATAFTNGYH

Binder | binding signal
B1 | 1 enrichment R
B2 | 9.31 enrichment R
B3 | 0.305 enrichment R
B4 | 0.442 enrichment R
B5 | 0.612 enrichment R
B6 | 0.61 enrichment R
B7 | 1.17 enrichment R
B8 | 0.618 enrichment R
B9 | 0.732 enrichment R
B10 | 0.251 enrichment R
B11 | 0.258 enrichment R
B12 | 0.369 enrichment R
B13 | 0.947 enrichment R
B14 | 0.439 enrichment R
B15 | 0.546 enrichment R
B16 | 0.714 enrichment R
B17 | 4.33 enrichment R
B18 | 0.482 enrichment R
B19 | 1.16 enrichment R
B20 | 0.254 enrichment R
B21 | 2.47 enrichment R
B22 | 0.473 enrichment R
